# Measured values as given in PubChem BioAssay AID1508623 (National Center for Advancing Translational Sciences (NCATS), 2021).
# The campaign covered roughly 48,000 compounds. About 450 (0.94%) were called active. Inconclusive means that the source gave no clear call. Such entries were picked first, then a sample of the others. Calls follow the shape of the dose curve; as a rule, active = well fitted inhibition curve with a large enough effect; inconclusive = small, poorly fitted or top-dose-only effect; inactive = no such curve, though single readings can be large or run the other way. A potency beside an inconclusive call is a rough fit, not a confirmed value.
# Experiment: Primary qHTS for Identification of Small Molecule Inhibitors of Huntingtin Promoter Activity; also: nearly all actives have a fitted effect of over 50% in size
# Conditions: HEK293 HTT promoter firefly luciferase reporter (activity 0% = vehicle and -100% = no light), 24 h; activity change, negative = inhibition: at 57.5 µM (top of the series)
# Procedure, shortened: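 HEK293 cells carrying firefly luciferase reporters were seeded at 2,500 per well in Opti-MEM and cultured for 24 h. They were then treated with compounds at up to 57.5 uM final for 24 h at 37 degrees C before Dual-Glo luminescence readout.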
# Potency is read from the fitted curve at half-maximal effect; tags tell the direction and shape of the fitted curve.
SMILES,Potency,"activity change, negative = inhibition"
Cc1ccc(C)c(N2CCN(S(=O)(=O)c3ccc(F)c(C(=O)Nc4ccc(Cl)cc4Cl)c3)CC2)c1,"inconclusive: 39.8 µM [inhibitor, single point]",–
CCOC(=O)c1c(C)oc2ccc(N(C(=O)c3ccncc3)S(=O)(=O)c3ccc(F)cc3)cc12,"inconclusive: 35.5 µM [inhibitor, partial curve, poor fit]",–
Cc1ccccc1CNCCSc1nnnn1C,"inconclusive: 28.2 µM [inhibitor, single point]",–
COc1ccc(NC(=O)c2ccco2)cc1NC(=O)COc1cc(C)ccc1C(C)C,"inconclusive: 39.8 µM [inhibitor, single point]",–
COc1cccc(/C=C/c2nc3ccccc3c(=O)n2-c2ccc(C)c(C)c2)c1OC,"inconclusive: 39.8 µM [inhibitor, single point]",–
COc1ccc(Cl)cc1S(=O)(=O)N1CCC(c2ccncc2)CC1,"inconclusive: 22.4 µM [inhibitor, partial curve]",–
CCOc1ccc(NC(=O)c2c(NC(=O)c3ccncc3)sc3c2CCC(C(C)(C)C)C3)cc1 (centres undefined),–,inactive: -16% [at 11.5 µM]
COc1ccc(C)cc1NS(=O)(=O)c1cc(Br)cc2c1N(C(C)=O)C(C)C2 (centres undefined),"inconclusive: 39.8 µM [inhibitor, single point]",–
CCC(CC)C(=O)N1CCc2cc(OC)c(OC)cc2C1COc1ccc(F)cc1 (centres undefined),"inconclusive: 11.2 µM [inhibitor, partial curve, poor fit]",–
CCc1ccc(NS(=O)(=O)c2ccc3[nH]c4c(c3c2)CCCCCC4)cc1,"inconclusive: 39.8 µM [inhibitor, single point]",–
COc1ccc(-c2cccc(NS(=O)(=O)c3ccc(NC(C)=O)cc3)c2)nn1,"inconclusive: 12.6 µM [inhibitor, partial curve]",–
Cc1ccc(-c2nc3scc(CCNS(=O)(=O)c4ccc(Oc5ccccc5)cc4)n3n2)cc1,active: 20 µM,–
CCCCCNC(=O)C1CCC(Cn2c(=O)c3sccc3n(CC)c2=O)CC1 (centres undefined),inactive,–
Cc1ccc(CN2C(=O)C3(c4ccccc42)N(c2ccc(C)c(Cl)c2)C(=O)CS3(=O)=O)cc1 (centres undefined),"inconclusive: 17.8 µM [inhibitor, partial curve, poor fit]",–
COc1ccc(NC(=O)CSc2cn(CCNC(=O)c3ccc(OC)cc3)c3ccccc23)cc1,"inconclusive: 28.2 µM [inhibitor, partial curve]",–
O=C(CCC1N=C2c3ccccc3N=C(SCc3cccc(Cl)c3)N2C1=O)NCCc1ccccc1 (centres undefined),"inconclusive: 28.2 µM [inhibitor, partial curve, poor fit]",–
COc1ccc(Br)cc1CNC(=O)CSc1n[nH]c(-c2ccccc2)n1,"inconclusive: 1.12 µM [inhibitor, single point]",–
CCC(C)[C@H](N)c1nnc(SCc2ccc(Cl)c(Cl)c2)o1 (some centres undefined),"inconclusive: 39.8 µM [inhibitor, single point]",–
CC1=C(C(=O)Nc2ccccc2)C(c2ccc(O)cc2)n2nc(-c3ccc(Cl)cc3)nc2N1 (centres undefined),"inconclusive: 39.8 µM [inhibitor, single point]",–
CCn1c(CN2CCCCC2)nc2cc(NC(=O)COc3ccc(C(C)(C)C)cc3)ccc21,"inconclusive: 20 µM [inhibitor, partial curve, poor fit]",–

SMILES,Potency,"activity change, negative = inhibition"
CCOC(=O)c1cccc(NS(=O)(=O)c2cc(Br)cc3c2N(C(=O)C2CC2)CC3)c1,"inconclusive: 20 µM [inhibitor, partial curve, poor fit]",–
COC(=O)c1ccc(OCC2c3cc(OC)c(OC)cc3CCN2C(=O)c2cccc(C)c2)cc1 (centres undefined),inactive,–
COc1cccc(CNC(=O)Cn2c(=O)n3nc(-c4cccc(C)c4)nc3c3ccccc32)c1,inactive,–
Cc1ccc(C)c(N2CCN(CCCNc3ncnc4onc(-c5ccc(Cl)cc5)c34)CC2)c1,inactive,–
CN(Cc1ccccc1)C(=O)c1ccc(CSc2nc3cccnc3n2Cc2ccccc2)cc1,"inconclusive: 25.1 µM [inhibitor, partial curve]",–
Cc1cccc(CSc2nc3ccncc3n2CC(=O)N(C)C2CCCCC2)c1,"inconclusive: 31.6 µM [inhibitor, partial curve, poor fit]",–
COc1ccc(NC(=O)Cn2c(=O)oc3cc(S(=O)(=O)N4CCCC4)ccc32)cc1OC,"inconclusive: 35.5 µM [inhibitor, partial curve, poor fit]",–
O=C(Nc1ccc2oc(-c3ccc(Br)cc3)nc2c1)c1cc2ccccc2o1,inactive,–
CCC1CCCCN1CCCNC(=O)c1ccc2c(c1)N(Cc1cccc(Cl)c1)C(=O)c1ccccc1S2(=O)=O (centres undefined),"inconclusive: 28.2 µM [inhibitor, single point]",–
O=c1oc2c(CN3CCOCC3)c(O)ccc2cc1-c1ccccc1,inactive,–
CCCN(C(=O)c1ccc2c(=O)n3c(nc2c1)CCCCC3)c1cccc(Cl)c1,"inconclusive: 28.2 µM [inhibitor, single point]",–
O=C(CCNS(=O)(=O)c1ccc2c(c1)CCN2C(=O)C1CC1)Nc1ccc(Cl)cc1,"inconclusive: 39.8 µM [inhibitor, single point]",–
Cc1cccc(NC(=O)CN2C(=O)C(c3ccc(F)cc3)=NC23CCCCCC3)c1C,"inconclusive: 17.8 µM [inhibitor, partial curve, poor fit]",–
CCOc1ccc2c(c1)NC(c1ccc(OCC)c(OCC)c1)=NC(c1ccc(F)cc1)=N2,inactive,–
NS(=O)(=O)c1ccc(N2CCCCS2(=O)=O)cc1,inactive,–
Cc1ccc(NC(=O)Cn2nc(C(F)(F)F)c3c2CCCC3)cc1,"inconclusive: 39.8 µM [inhibitor, single point]",–
CCOC(=O)c1ccc(NC(=O)c2nc(SCc3ccc(F)cc3)ncc2Cl)cc1,"inconclusive: 39.8 µM [inhibitor, single point]",–
COc1ccc2ncc3c(-c4ccc(C)c(C)c4)nn(CC(=O)Nc4ccccc4)c3c2c1,"inconclusive: 39.8 µM [inhibitor, single point]",–
O=C(Cn1cc(S(=O)(=O)Cc2ccccc2F)c2ccccc21)Nc1ccc(F)c(Cl)c1,"inconclusive: 31.6 µM [inhibitor, single point]",–
